The data set has as its target Escherichia coli (laboratory strain). As to the kind of experiment: barcode share on antibiotic plates over drug-free plates; higher = less susceptible. The procedure:
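A pool of E. coli strains, each edited to carry one amino-acid change in an essential protein, was grown for 48 h on minimal glucose agar with or without antibiotic; strain barcodes were sequenced; mean of two replicates.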

[1] abbreviates: antibiotic: carbenicillin, 2× MIC (3.1 µg/mL).
[2] abbreviates: antibiotic: gentamicin, 2× MIC (MIC 0.45 µg/mL).

Where a chain is given by its changes, count along the chain named. Numbers in names are those of the source. ± gives the standard deviation of the averaged measurements. Laboratory Escherichia coli strains with one amino-acid change in an essential protein, pooled on minimal glucose agar with carbenicillin or gentamicin at twice the control MIC (plus kanamycin and chloramphenicol for the plasmids), 48 h. Fold change of barcode share against drug-free plates; higher = less susceptible. Active = above 20 in both replicates (the paper's putatively resistant). '<' = one read or none on drug, '>' = one read or none on a drug-free plate. Shares are relative, so most strains fall below 1 when a few take over. Listed are strains with at least 15 reads on both drug-free plates, and hits; most hits rest on fewer reference reads. Replicate rank correlation about 0.5. Edits are read from barcodes.

B1: hemB M116P (protein)
chain: MTDLIQRPRRLRKSPALRAMFEETTLSLNDLVLPIFVEEEIDDYKAVEAMPGVMRIPEKHLAREIERIANAGIRSVMTFGISHHTDETGSDAWREDGLVARMSRICKQTVPEMIVPSDTCFCEYTSHGHCGVLCEHGVDNDATLENLGKQAVVAAAAGADFIAPSAAMDGQVQAIRQALDAAGFKDTAIMSYSTKFASSFYGPFREAAGSALKGDRKSYQMNPMNRREAIRESLLDEAQGADCLMVKPAGAYLDIVRELRERTELPIGAYQVSGEYAMIKFAALAGAIDEEKVVLESLGSIKRAGADLIFSYFALDLAEKKILR
In the case of B1, under setting [1], the “fold change of barcode share” value was determined as 0.273 ± 0.12.

B2: hemB V115A (protein)
chain: B1 chain with V115A, P116M
With B2, the “fold change of barcode share” value under setting [1] came to 0.318 ± 0.073 and the “fold change of barcode share” value under setting [2] was 0.052 ± 0.05.

B3: hemB M77D (protein)
chain: B1 chain with M77D, P116M
Regarding B3, the “fold change of barcode share” value is, setting by setting: under setting [1], 0.735 ± 0.51; under setting [2], 0.0971 ± 0.092.

B4: hemB V115Q (protein)
chain: B1 chain with V115Q, P116M
Take B4: the “fold change of barcode share” value is, setting by setting: under setting [1], 0.418 ± 0.2; under setting [2], < 0.00467.

B5: hemB V115W (protein)
chain: B1 chain with V115W, P116M
In the case of B5, the “fold change of barcode share” value is 0.188 ± 0.11 under setting [1] and 0.0292 ± 0.013 under setting [2].

B6: hemB M77A (protein)
chain: B1 chain with M77A, P116M
With B6, the “fold change of barcode share” value was found to be 0.294 ± 0.15 under setting [1] and 0.0133 ± 0.0018 under setting [2].

B7: hemB M77Q (protein)
chain: B1 chain with M77Q, P116M
For the protein B7, the “fold change of barcode share” value is 0.313 ± 0.093 under setting [1] and < 0.00414 under setting [2].
